Results taken from the supplement of paper PMC9446081.
The campaign covered roughly 39,000 compounds. About 220 (0.56%) showed activity. The list shows a part of the results.

tested on: Escherichia coli K-12 BW25113; assay: relative growth (OD600 normalised to plate interquartile mean) (fraction); higher = less growth inhibition, active = 0.2 or less; conditions: 50 µM; LB; incubation time: overnight (16-24 h)
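Note: static incubation at 37 °C against the wild-type strain, values averaged over two biological replicates.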

| Structure (SMILES) | relative growth |
| --- | --- |
| C=CCC[C@H](Cc1ccc(F)cc1)C(=O)O[C@@H](CNC(=O)[C@H](CC=C)CC(=O)N(CCO)Cc1ccccc1)c1ccccc1 | inactive: 1.08 |
| Cc1noc(C)c1NC(=O)N(C)C[C@@H]1Oc2c(NC(=O)c3ccc(-c4nccs4)cc3)cccc2C(=O)N([C@@H](C)CO)C[C@H]1C | inactive: 0.982 |
| COc1ccc(NC(=O)Nc2ccc3c(c2)C(=O)N([C@H](C)CO)C[C@H](C)[C@@H](CN(C)S(=O)(=O)c2c(C)noc2C)O3)cc1 | inactive: 1.06 |
| C[C@@H]1CN([C@H](C)CO)C(=O)c2cccc(NC(=O)Nc3ccc(C(F)(F)F)cc3)c2O[C@H]1CN(C)C(=O)Nc1ccc2c(c1)OCO2 | inactive: 0.801 |
| C[C@H](CO)N1C[C@H](C)[C@@H](CN(C)S(=O)(=O)c2cn(C)cn2)Oc2c(NC(=O)c3ccncc3)cccc2C1=O | inactive: 1.01 |
| COCC(=O)N1C[C@H](C)[C@@H](OC)CN(C)C(=O)c2ccc(NC(=O)Nc3cccc(F)c3)cc2OC[C@@H]1C | inactive: 1.04 |
| C[C@H](CO)N1C[C@H](C)[C@H](CN(C)C(=O)Nc2ccccc2)Oc2c(NC(=O)Nc3cccc4ccccc34)cccc2C1=O | inactive: 1.01 |
| C[C@@H]1CCCCO[C@H](CN(C)Cc2ccc(C(=O)O)cc2)[C@@H](C)CN([C@H](C)CO)C(=O)c2cc(NC(=O)c3ccccc3)ccc2O1 | inactive: 1.02 |
| COc1ccc(NC(=O)N(C)C[C@@H]2Oc3ccc(NS(C)(=O)=O)cc3CC(=O)N([C@H](C)CO)C[C@H]2C)cc1 | inactive: 0.997 |
| Cc1ccc(S(=O)(=O)Nc2ccc3c(c2)CC(=O)N([C@H](C)CO)C[C@H](C)[C@@H](CN(C)S(C)(=O)=O)O3)cc1 | inactive: 0.983 |
| CCC(=O)N(C)C[C@H]1Oc2ncc(C#C[C@@H](C)O)cc2C(=O)N([C@@H](C)CO)C[C@@H]1C | inactive: 0.991 |
| CCNC(=O)C[C@@H]1CC[C@@H]2[C@H](COC[C@@H](O)CN2C(=O)Nc2c(C)noc2C)O1 | inactive: 1.02 |
| CC(C)NC(=O)N(C)C[C@@H]1OCCCC[C@@H](C)Oc2ccc(NC(=O)Nc3cccc4ccccc34)cc2C(=O)N([C@@H](C)CO)C[C@@H]1C | inactive: 1.01 |
| CC(C)NC(=O)Nc1cccc2c1O[C@@H](CN(C)S(=O)(=O)c1ccc(Cl)cc1)[C@H](C)CN([C@H](C)CO)C2=O | inactive: 1 |
| OC[C@H]1CC[C@@H]2O[C@H](CCc3ccc(C#Cc4ccccc4)cc3)[C@H](n3cc(-c4ccccc4)nn3)C[C@@H]2O1 | inactive: 1.05 |
| C[C@@H]1CCCCO[C@@H](CN(C)Cc2ccc(Cl)c(Cl)c2)[C@H](C)CN([C@@H](C)CO)C(=O)c2cc(N(C)C)ccc2O1 | inactive: 1 |
| C[C@H]1CN([C@@H](C)CO)C(=O)c2ccccc2-c2ccccc2CO[C@H]1CN(C)C(=O)Nc1ccc(F)cc1 | inactive: 0.973 |
| C[C@@H]1CN([C@H](C)CO)C(=O)c2cccc(NS(=O)(=O)c3ccccc3)c2O[C@@H]1CN(C)S(C)(=O)=O | inactive: 1.01 |
| COc1cccc(NC(=O)N(C)C[C@H]2Oc3ncc(C#Cc4ccncc4)cc3C(=O)N([C@H](C)CO)C[C@H]2C)c1 | inactive: 1 |
| NC(=O)Cn1c(=O)c2ccccc2n(CC(N)=O)c1=O | inactive: 1.02 |

| Structure (SMILES) | relative growth |
| --- | --- |
| C[C@H]1CN([C@@H](C)CO)C(=O)c2cccc(NC(=O)c3nc4ccccc4s3)c2O[C@H]1CN(C)CC1CCCCC1 | inactive: 0.994 |
| C[C@@H]1CCCCO[C@@H](CN(C)C(=O)Nc2ccc(F)cc2)[C@H](C)CN([C@H](C)CO)C(=O)c2cc(NC(=O)Nc3ccc(F)cc3)ccc2O1 | inactive: 1.04 |
| Cc1ccc(S(=O)(=O)Nc2ccc3c(c2)C(=O)N([C@H](C)CO)C[C@@H](C)[C@H](CN(C)C(=O)Nc2ccccc2)OCCCC[C@H](C)O3)cc1 | inactive: 1.01 |
| C[C@H]1CN([C@@H](C)CO)C(=O)Cc2cc(NS(=O)(=O)c3ccc(F)cc3)ccc2O[C@H]1CN(C)S(C)(=O)=O | inactive: 0.995 |
| C[C@@H]1CN([C@@H](C)CO)C(=O)c2cccc(NS(=O)(=O)c3ccc(F)cc3)c2O[C@H]1CN(C)Cc1ccc(Oc2ccccc2)cc1 | inactive: 1.02 |
| C[C@@H]1CN([C@@H](C)CO)C(=O)Cc2cc(NS(C)(=O)=O)ccc2O[C@H]1CN(C)C(=O)Nc1ccc2c(c1)OCO2 | inactive: 0.999 |
| O=C(C[C@@H]1C=C[C@@H](NS(=O)(=O)c2ccc(F)cc2)[C@@H](CO)O1)NCCN1CCCCC1 | inactive: 0.931 |
| C[C@@H]1CN([C@@H](C)CO)C(=O)CCCn2cc(nn2)CO[C@H]1CN(C)C(=O)Nc1cccc(Oc2ccccn2)c1 | inactive: 0.979 |
| C[C@@H]1CCCCO[C@H](CN(C)C(=O)Cc2ccccc2)[C@H](C)CN([C@H](C)CO)C(=O)c2cc(NC(=O)Nc3ccccc3)ccc2O1 | inactive: 1.04 |
| CCc1cc(=O)oc2cc(O[C@@H](C)C(=O)N[C@@H](CCCNC(=N)N)C(=O)O)ccc12 | inactive: 0.987 |
| C[C@H](CO)N1C[C@H](C)[C@H](CN(C)S(C)(=O)=O)Oc2ncc(C#Cc3ccc(C(F)(F)F)cc3)cc2C1=O | inactive: 0.966 |
| C[C@H](CO)N1C[C@H](C)[C@@H](CN(C)S(=O)(=O)c2ccccc2F)Oc2ncc(C#Cc3ccncc3)cc2C1=O | inactive: 0.995 |
| CS(=O)(=O)CCNCc1ccc(-c2ccc3ncnc(Nc4ccc(OCc5cccc(F)c5)c(Cl)c4)c3c2)o1 | inactive: 0.937 |
| C[C@@]1(C(=O)O)CCCC[C@@H]1N | inactive: 1.02 |
| O=C(Nc1nnc2n1CCS2)C1CC1 | inactive: 1.05 |
| Cc1ccc2nccc(C(=O)N3CCC[C@@H](Cn4cc(C(C)(C)N)nn4)C3)c2c1 | inactive: 1 |
| CC(=O)N1[C@H](CO)[C@@H](c2ccccc2)C12CN(C(=O)CN1CCOCC1)C2 | inactive: 0.949 |
| Cc1ccc(S(=O)(=O)N2C[C@H](O)COC[C@@H]3O[C@H](CC(=O)NCCCN(C)C)CC[C@H]32)cc1 | inactive: 1.01 |
| NNC(=O)CCc1ccccc1 | inactive: 1.01 |
| O=C(C[C@@H]1C[C@@H]2c3cc(NC(=O)NC4CCCC4)ccc3O[C@@H]2[C@H](CO)O1)NCc1ccc2c(c1)OCO2 | inactive: 0.975 |

| Structure (SMILES) | relative growth |
| --- | --- |
| COc1cccc(S(=O)(=O)N(C)C[C@H]2Oc3cc(Br)ccc3S(=O)(=O)N([C@@H](C)CO)C[C@H]2C)c1 | inactive: 0.986 |
| O=C(CN1CCOCC1)N/N=C/c1ccc([N+](=O)[O-])o1 | inactive: 0.801 |
| CS(=O)(=O)NCc1ncn2c1CN(C(=O)[C@H]1CCCO1)CCC2 | inactive: 0.991 |
| C[C@H]1CN([C@@H](C)CO)C(=O)Cc2cc(NC(=O)Cn3cnnn3)ccc2O[C@H]1CN(C)Cc1ccc(C(F)(F)F)cc1 | inactive: 1.02 |
| Cc1noc(C)c1S(=O)(=O)Nc1ccc2c(c1)C(=O)N([C@@H](C)CO)C[C@H](C)[C@@H](CN(C)C(=O)NC(C)C)O2 | inactive: 0.974 |
| COc1ccc(NC(=O)N2C[C@H](O)COC[C@H]3O[C@H](CC(=O)NCc4ccccc4OC)CC[C@@H]32)cc1 | inactive: 1 |
| Cc1noc(C)c1S(=O)(=O)Nc1ccc2c(c1)C(=O)N([C@@H](C)CO)C[C@H](C)[C@H](CN(C)S(=O)(=O)c1c(C)noc1C)O2 | inactive: 1.02 |
| CCOC(=O)N(C)C[C@H]1OCc2cnnn2CCCC(=O)N([C@@H](C)CO)C[C@@H]1C | inactive: 0.998 |
| C[C@@H]1CN([C@@H](C)CO)C(=O)Cc2cc(NS(=O)(=O)c3cccs3)ccc2O[C@H]1CN(C)Cc1ccc(Cl)c(Cl)c1 | inactive: 0.999 |
| C[C@@H]1CCCCO[C@H](CN(C)C(=O)Cc2ccccc2)[C@@H](C)CN([C@H](C)CO)C(=O)c2cc(NC(=O)Nc3ccc(F)cc3)ccc2O1 | inactive: 0.974 |
| C[C@H](CO)N1C[C@H](C)[C@H](CN(C)S(=O)(=O)c2ccccc2)Oc2c(NS(C)(=O)=O)cccc2C1=O | inactive: 0.974 |
| COc1ccc(S(=O)(=O)Nc2ccc3c(c2)C(=O)N([C@H](C)CO)C[C@H](C)[C@H](CN(C)S(=O)(=O)c2cn(C)cn2)O3)cc1 | inactive: 1.02 |
| C[C@@H]1CCCCO[C@@H](CN(C)C(=O)CCC(F)(F)F)[C@H](C)CN([C@@H](C)CO)C(=O)c2cc(NC(=O)NC3CCCCC3)ccc2O1 | inactive: 0.99 |
| Cc1noc(C)c1NC(=O)N(C)C[C@H]1OCCCC[C@@H](C)Oc2ccc(NC(=O)Nc3ccc(C(F)(F)F)cc3)cc2C(=O)N([C@H](C)CO)C[C@@H]1C | inactive: 1 |
| C[C@H](CO)N1C[C@H](C)[C@H](CN(C)C(=O)Nc2cccc(Cl)c2Cl)OCc2ccccc2-c2c(n(C)c3ccccc23)C1=O | inactive: 0.985 |
| COc1ccc2c3c(n(c2c1)C)[C@@H](CO)N(C[C@]13CN(C1)C(=O)c1ccncc1)C(=O)C1CCCCC1 | inactive: 0.988 |
| Cc1noc(C)c1S(=O)(=O)Nc1cccc2c1O[C@@H](CN(C)Cc1ccncc1)[C@@H](C)CN([C@@H](C)CO)C2=O | inactive: 1.02 |
| C[C@H]1CN([C@@H](C)CO)C(=O)c2cccc(NC(=O)Nc3ccc(C(F)(F)F)cc3)c2O[C@@H]1CN(C)CC1CCCCC1 | inactive: 0.834 |
| C[C@@H]1CCCCO[C@@H](CN(C)C(=O)Nc2ccc(C(F)(F)F)cc2)[C@@H](C)CN([C@H](C)CO)C(=O)c2cc(NS(=O)(=O)c3cccs3)ccc2O1 | inactive: 1 |
| O=C(C[C@H]1CC[C@H]2[C@@H](COC[C@@H](O)CN2C(=O)Nc2cc(Cl)cc(Cl)c2)O1)N1CCOCC1 | inactive: 0.967 |
